Experimental data as given in PubChem BioAssay (Tox21).
This list was built around the results that the source calls inconclusive (neither active nor inactive); the mix of calls is not that of the screen. A call without a number means that no potency is given here. For some assays here: Potencies of inconclusive entries are doubtful fits and often do not repeat. Calls of active or inactive are those of the source. Unless noted, the call rests on the fitted dose curve; in most records, active means well fitted curve in the direction sought with a large enough effect in the repeat runs; inconclusive means weak or mixed curves; inactive means no such curve, though single readings can be large; an effect the other way counts as inactive or inconclusive.

Experiments:
[1] = qHTS assay to identify small molecule antagonists of the estrogen related receptor signaling pathway with the pleiotropic PPARgamma coactivator (PGC) cell viability counter screen (AID 1224822; further: potency means the concentration at half of the fitted maximal effect)
Procedure, shortened: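 PGC/ERR cells were seeded at 2,000 cells/well, rested 6 h at 37 C/5% CO2, then given compounds in DMSO by pin tool and incubated 17.5 h at 37 C. Viability came from CellTiter-Fluor fluorescence after 30 min.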

[2] = qHTS assay to identify small molecule agonists of the estrogen related receptor signaling pathway with the pleiotropic PPARgamma coactivator (PGC) (AID 1224823); further: potency means the concentration at half of the fitted maximal effect
Procedure, shortened: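 PGC/ERR reporter cells seeded 6 h, then exposed to compounds (23 nL in DMSO) for 18 h at 37 C. One-Glo luciferase luminescence read after 30 min at room temperature.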

[3] = qHTS assay for small molecule agonists of the p53 signaling pathway (AID 651631; calls by dose curve; further: nearly all actives have a fitted effect of over 15% in size); settings: HCT-116 p53RE-bla reporter, beta-lactamase FRET ratio, 16 h; activation: at 73.3 µM (top of the series) unless noted
Procedure, shortened: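 Readout was fluorescence from the LiveBLAzer FRET substrate, applied for 2 h at room temperature after 16 h compound exposure at 37 °C. Cells were the p53RE-bla HCT-116 line, with beta-lactamase driven by p53 response elements.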

[4] = qHTS assay for small molecule disruptors of the mitochondrial membrane potential - cell viability (AID 720634; calls by dose curve;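 further: human HepG2 liver cancer cells; nearly all actives have a fitted effect of over 20% in size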)
Procedure, shortened: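 HepG2 cells seeded overnight at 37 C, then exposed to compound or DMSO for 1 hr at 37 C, 5% CO2. m-MPI dye added, then CellTiter-Glo for 30 min at room temperature; viability read as ATP luminescence.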

[5] = qHTS assay for identifying genotoxic compounds that show differential cytotoxicity against isogenic chicken DT40 cell lines with known DNA damage response pathways - wild type cell line (AID 743012); settings: DT40 wild type chicken cells viability, CellTiter-Glo, 40 h; activity change, negative = cytotoxicity: at 68.4 µM (top of the series) unless noted; further: nearly all actives have a fitted effect of over 60% in size
Procedure, shortened: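 Parental DNA repair-proficient DT40 cells, 300 per well, were pre-incubated ~0.5 h at 37 C/5% CO2, pin-dosed with compounds in DMSO, then incubated 40 h. Viability was read as CellTiter-Glo luminescence after 30 min at room temperature.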

[6] = qHTS assay to identify small molecule antagonists of the androgen receptor (AR) signaling pathway using the MDA cell line - cell viability counter screen (AID 743041; further: nearly all actives have a fitted effect of over 45% in size); settings: MDA-kb2 viability, CellTiter-Fluor, 16 h, cells co-treated with R1881 androgen agonist; viability change, negative = cytotoxic: at 70.3 µM (top of the series)
Procedure, shortened: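 Cells were plated at 3,000 per well and left 5 h. Compounds in DMSO were then pinned in, followed by R1881. After 16 h at 37C, CellTiter-Fluor fluorescence gave viability.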

[7] = qHTS assay to identify small molecule antagonists of the thyroid receptor (TR) signaling pathway - cell viability counter screen (AID 743064); settings: GH3.TRE-Luc viability, CellTiter-Fluor, 24 h; activity change, negative = cytotoxic: at 70.3 µM (top of the series) unless noted; further: potency means the concentration at half of the fitted maximal effect; nearly all actives have a fitted effect of over 50% in size
Procedure, shortened: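 In-well cytotoxicity read by CellTiter-Fluor (30 min, 37 C) following 23.5 h exposure of GH3 cells bearing a TRE-luciferase sensor. Compounds were added alongside 1 nM (final) T3 to drive TR transactivation.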

[8] = qHTS assay to identify small molecule antagonists of the estrogen receptor alpha (ER-alpha) signaling pathway - cell viability counter screen (AID 743074; calls by dose curve;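 further: HEK293 cells carrying ER-alpha-UAS-bla reporter stimulated with 17beta-estradiol; potency means the concentration at half of the fitted maximal effect; nearly all actives have a fitted effect of over 45% in size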)
[9] = qHTS assay to identify aromatase inhibitors - cell viability counter screen (AID 743084); settings: MCF-7 aro ERE viability, CellTiter-Fluor, 24 h; activity change, negative = cytotoxicity: at 70.3 µM (top of the series) unless noted;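 further: cells stimulated with testosterone during compound exposure; nearly all actives have a fitted effect of over 55% in size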
[10] = target: Peroxisome proliferator-activated receptor gamma (Homo sapiens) (UniProt P37231); assay: qHTS assay to identify small molecule agonists of the peroxisome proliferator-activated receptor gamma (PPARg) signaling pathway (AID 743094; active means well fitted activation curve with a large enough effect in the signal ratio in the repeat runs, not every such curve was filed as active; inconclusive means weak or mixed curves, or effect the other way; inactive means no such curve, though single readings can be large or run the other way; the % refers to the signal ratio); settings: HEK293H PPARg-UAS-bla, beta-lactamase FRET ratio, 17 h; activation: at 57 µM (top of the series) unless noted
Procedure, shortened: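 GeneBLAzer PPARg UAS-bla HEK293H cells carrying a stably integrated beta-lactamase reporter were pre-incubated 5 h at 37C, then exposed to compounds in DMSO for 17 h at 37C; LiveBLAzer B/G FRET substrate was added for 1 h at room temperature and fluorescence read.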

[11] = qHTS assay for small molecule activators of the heat shock response signaling pathway (AID 743210; active means well fitted activation curve with a large enough effect in the signal ratio in the repeat runs, with a control signal flat, not every such curve was filed as active; inconclusive means weak or mixed curves; the % refers to the signal ratio;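 further: HeLa cells with beta-lactamase reporter driven by heat shock elements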); settings: HeLa HSE-bla reporter, beta-lactamase ratio, 5 h; activation: at 62.6 µM (top of the series) unless noted
Procedure, shortened: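 HeLa HSE-bla cells, overnight plating; cpd in DMSO 5 h, 37 C; LiveBLAzer B/G FRET substrate 2.5 h RT; fluorescence intensity read.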

[12] = qHTS assay to identify small molecule antagonists of the vitamin D receptor (VDR) signaling pathway - cell viability counter screen (AID 743225); settings: VDR-bla HEK293T viability, CellTiter-Glo luminescence, 16 h; viability change, negative = cytotoxic: at 61 µM (top of the series) unless noted; further: nearly all actives have a fitted effect of over 50% in size
Procedure, shortened: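 Cytotoxicity counter screen read by CellTiter-Glo luminescence (30 min, room temperature) in the same wells as the VDR-bla antagonist readout. HEK 293T VDR-UAS-bla cells had 16 h at 37C with compound and 3 nM (final) 1-alpha,25-dihydroxyvitamin D3, then 2 h with FRET substrate.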

[13] = qHTS assay to identify small molecule antagonists of the estrogen related receptor (ERR) signaling pathway from Tox21 library - cell viability counter screen (AID 1224834); further: nearly all actives have a fitted effect of over 30% in size
Procedure, shortened: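 ERR reporter cells were plated 6 h before compound addition, then exposed to test compounds in DMSO for 17.5 h at 37 C. Viability was read as CellTiter-Fluor fluorescence after a 30-minute incubation at 37 C.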

[14] = target: Nuclear receptor subfamily 1 group I member 3 (Homo sapiens) (UniProt Q14994); assay: qHTS assay to identify small molecule agonists of the constitutive androstane receptor (CAR) signaling pathway (AID 1224839);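 further: HepG2 cells stably carrying human CAR and a CYP2B6 luciferase reporter; nearly all actives have a fitted effect of over 15% in size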
Procedure, shortened: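 Luminescent ONE-Glo read-out after 24 hr, 37 C exposure of double-stable HepG2-CYP2B6-hCAR reporter cells to a 15-point compound series, in the presence of 0.75 uM PK11195 (final).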

[15] = qHTS assay to identify small molecule agonists of H2AX (AID 1224845; active means well fitted activation curve with a large enough effect in the signal ratio in the repeat runs, not every such curve was filed as active; inconclusive means weak or mixed curves; the % refers to the signal ratio); settings: CHO-K1 phospho-H2AX Ser139 HTRF, 3 h; activation (H2AX phosphorylation): at 154 µM (top of the series) unless noted
Procedure, shortened: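 Phospho-H2AX Ser139 measured by HTRF (ex 320 nm; em 665 and 620 nm) after 24 hr antibody incubation. Compounds, 15 concentrations, 0.76% DMSO, were applied to CHO-K1 cells for 3hr at 37C before lysis.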

[16] = qHTS assay to identify small molecule agonists of H2AX - cell viability counter screen (AID 1224847; calls by dose curve;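 further: wild-type CHO-K1 cells; top concentration of the series differs between compounds; nearly all actives have a fitted effect of over 30% in size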)
Procedure, shortened: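 Counter-screen for viability: CellTiter-Glo ATP luminescence read after 3 h compound treatment (15-point titration, 0.76% DMSO final) of CHO-K1 cells at 37C, with 30 min room-temperature reagent incubation.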

[17] = A CellTox Green Cytotoxicity Assay to monitor cytotoxicity in HepG2 cells - 40 hour (AID 1224879); further: nearly all actives have a fitted effect of over 40% in size
Procedure, shortened: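 HepG2 cells were seeded together with the CellTox Green dye at 600 cells/well, left 5 h at 37 C/5% CO2, then given compounds in DMSO. Fluorescence from dye bound to dead-cell DNA was read repeatedly over 40 h of treatment at 37 C.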

[18] = target: Progesterone receptor (Homo sapiens) (UniProt P06401); assay: qHTS assay to identify small molecule agonists of the progesterone receptor (PR) signaling pathway (AID 1346784; calls by dose curve; further: nearly all actives have a fitted effect of over 30% in size); settings: PR-UAS-bla HEK293T, beta-lactamase FRET ratio, 16 h; activation: at 92.4 µM (top of the series) unless noted
Procedure, shortened: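 Agonist qHTS: compounds pinned onto 3,000 PR-UAS-bla HEK 293T cells per well in charcoal-stripped serum medium, 16hr at 37C, then beta-lactamase activity measured by LiveBLAzer FRET fluorescence after 2 hours at room temperature.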

[19] = target: Cytochrome P450 2C9 (Homo sapiens) (UniProt P11712); assay: Cytochrome P450 Family 2 Subfamily C Member 9 (CYP2C9) small molecule antagonists: luciferase reporter qHTS assay (AID 1671198); further: potency means the concentration at half of the fitted maximal effect; nearly all actives have a fitted effect of over 50% in size
Procedure, shortened: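 Enzyme-substrate mix preincubated with compound 10 min at room temperature; reaction started with NADPH regeneration solution, 1 h 37C. Luminescent luciferin product read after 20 min detection reagent.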
Tags describe the fitted curve by direction and shape.

UniProt P37231, sequence (P37231 whole entry, looked up): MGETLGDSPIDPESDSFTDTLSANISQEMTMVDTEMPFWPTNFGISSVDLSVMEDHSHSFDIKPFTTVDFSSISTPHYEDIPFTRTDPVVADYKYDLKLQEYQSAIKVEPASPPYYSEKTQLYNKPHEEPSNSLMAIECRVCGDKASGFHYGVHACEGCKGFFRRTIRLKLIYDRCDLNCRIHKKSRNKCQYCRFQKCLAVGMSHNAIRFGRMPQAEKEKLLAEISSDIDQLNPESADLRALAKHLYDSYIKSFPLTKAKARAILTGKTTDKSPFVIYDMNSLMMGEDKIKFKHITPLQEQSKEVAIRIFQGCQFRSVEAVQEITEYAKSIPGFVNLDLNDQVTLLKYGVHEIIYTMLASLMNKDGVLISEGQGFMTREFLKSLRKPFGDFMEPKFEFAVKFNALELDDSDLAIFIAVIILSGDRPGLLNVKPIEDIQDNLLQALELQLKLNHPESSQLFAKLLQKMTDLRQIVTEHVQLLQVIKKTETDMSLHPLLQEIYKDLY
UniProt Q14994, sequence (Q14994 whole entry, looked up): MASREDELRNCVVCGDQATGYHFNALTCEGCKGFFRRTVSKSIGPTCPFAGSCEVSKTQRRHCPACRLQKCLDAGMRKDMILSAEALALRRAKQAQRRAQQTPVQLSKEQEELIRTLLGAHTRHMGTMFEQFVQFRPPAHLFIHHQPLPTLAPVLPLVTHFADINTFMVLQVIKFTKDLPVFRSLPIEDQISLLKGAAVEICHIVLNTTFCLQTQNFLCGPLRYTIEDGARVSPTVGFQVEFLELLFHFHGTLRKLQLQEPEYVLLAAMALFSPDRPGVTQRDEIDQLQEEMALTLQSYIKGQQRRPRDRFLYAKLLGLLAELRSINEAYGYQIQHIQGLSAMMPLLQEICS
UniProt P11712, sequence (P11712 whole entry, looked up): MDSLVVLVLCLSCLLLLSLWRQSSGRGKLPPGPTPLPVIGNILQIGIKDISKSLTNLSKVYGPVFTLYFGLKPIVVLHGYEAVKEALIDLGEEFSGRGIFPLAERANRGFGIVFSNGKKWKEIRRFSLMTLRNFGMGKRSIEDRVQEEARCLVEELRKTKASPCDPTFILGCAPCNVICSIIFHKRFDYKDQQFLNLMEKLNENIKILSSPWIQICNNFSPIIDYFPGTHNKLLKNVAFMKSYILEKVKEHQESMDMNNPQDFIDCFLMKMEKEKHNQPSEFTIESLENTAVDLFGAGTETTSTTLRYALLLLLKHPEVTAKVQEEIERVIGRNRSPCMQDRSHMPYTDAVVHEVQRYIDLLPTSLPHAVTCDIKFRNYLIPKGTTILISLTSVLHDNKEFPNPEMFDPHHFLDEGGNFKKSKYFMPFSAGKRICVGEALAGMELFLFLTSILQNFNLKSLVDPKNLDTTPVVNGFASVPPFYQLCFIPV
UniProt P06401, sequence (P06401 whole entry, looked up): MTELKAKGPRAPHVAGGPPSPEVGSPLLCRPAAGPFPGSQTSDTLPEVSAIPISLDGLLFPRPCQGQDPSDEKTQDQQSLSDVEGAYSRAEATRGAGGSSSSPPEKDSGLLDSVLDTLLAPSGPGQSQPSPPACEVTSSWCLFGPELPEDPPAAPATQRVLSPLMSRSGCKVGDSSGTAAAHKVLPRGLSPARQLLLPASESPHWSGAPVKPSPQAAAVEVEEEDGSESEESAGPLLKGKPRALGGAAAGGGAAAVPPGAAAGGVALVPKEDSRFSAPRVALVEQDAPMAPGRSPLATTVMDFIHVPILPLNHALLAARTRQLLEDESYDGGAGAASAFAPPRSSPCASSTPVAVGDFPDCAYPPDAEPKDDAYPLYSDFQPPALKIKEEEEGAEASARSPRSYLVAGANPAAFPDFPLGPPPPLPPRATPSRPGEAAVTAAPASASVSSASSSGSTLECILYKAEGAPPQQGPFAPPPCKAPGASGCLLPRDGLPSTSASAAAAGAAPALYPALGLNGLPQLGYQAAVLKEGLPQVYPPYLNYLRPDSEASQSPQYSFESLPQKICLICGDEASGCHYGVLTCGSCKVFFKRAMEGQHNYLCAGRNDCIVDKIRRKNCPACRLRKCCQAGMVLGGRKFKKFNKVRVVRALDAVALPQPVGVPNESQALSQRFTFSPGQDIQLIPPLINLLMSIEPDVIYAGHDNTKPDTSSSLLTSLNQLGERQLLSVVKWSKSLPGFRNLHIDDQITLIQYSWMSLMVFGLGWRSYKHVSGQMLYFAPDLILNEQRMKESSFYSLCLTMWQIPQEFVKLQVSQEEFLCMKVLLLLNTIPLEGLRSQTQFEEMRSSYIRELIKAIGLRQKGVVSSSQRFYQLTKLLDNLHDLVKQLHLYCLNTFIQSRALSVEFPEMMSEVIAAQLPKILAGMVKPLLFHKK

Q: With `CCN(CC)CCOc1ccc(Nc2ncc3cc(-c4c(Cl)cccc4Cl)c(=O)n(C)c3n2)cc1` as the compound, how does the Potency [1] read?
A: active: 1.74 µM

Q: What about the Potency [2] of the same compound?
A: active: 0.0908 µM

Q: Which Potency [2] does the source give for `CCCCCC[C@@H]([C@@H](C)O)n1cnc2c(N)ncnc21` here?
A: inconclusive: 11 µM [activator]

Q: Which results are given for `CC1(C)Oc2ccc(C#N)cc2[C@@H](N2CCCC2=O)[C@@H]1O`?
A: activation [3]: inconclusive: 7.36%; Potency [4]: inactive; Potency [5]: inactive; Potency [6]: inactive; Potency [7]: inconclusive: 13.3 µM [rising, partial curve, poor fit]; Potency [8]: inconclusive: 26.8 µM [rising, partial curve, poor fit]; Potency [9]: inactive; Potency [10]: inactive; Potency [11]: inactive; Potency [12]: inactive; Potency [13]: inactive; Potency [14]: inactive; Potency [15]: inactive; Potency [16]: inactive; Potency [17]: inactive; Potency [18]: inactive; Potency [19]: inconclusive: 43.6 µM [inhibitor, single point]
